Experimental data published in the supplement of paper PMC11876631.
± gives the standard deviation of the averaged measurements. Laboratory Escherichia coli strains with one amino-acid change in an essential protein, pooled on minimal glucose agar with carbenicillin or gentamicin at twice the control MIC (plus kanamycin and chloramphenicol for the plasmids), 48 h. Fold change of barcode share against drug-free plates; higher = less susceptible. Active = above 20 in both replicates (the paper's putatively resistant). '<' = one read or none on drug, '>' = one read or none on a drug-free plate. Shares are relative, so most strains fall below 1 when a few take over. Listed are strains with at least 15 reads on both drug-free plates, and hits; most hits rest on fewer reference reads. Replicate rank correlation about 0.5. Edits are read from barcodes.

B1: secY F158Q (protein)
chain: MAKQPGLDFQSAKGGLGELKRRLLFVIGALIVFRIGSFIPIPGIDAAVLAKLLEQQRGTIIEMFNMFSGGALSRASIFALGIMPYISASIIIQLLTVVHPTLAEIKKEGESGRRKISQYTRYGTLVLAIFQSIGIATGLPNMPGMQGLVINPGFAFYQTAVVSLVTGTMFLMWLGEQITERGIGNGISIIIFAGIVAGLPPAIAHTIEQARQGDLHFLVLLLVAVLVFAVTFFVVFVERGQRRIVVNYAKRQQGRRVYAAQSTHLPLKVNMAGVIPAIFASSIILFPATIASWFGGGTGWNWLTTISLYLQPGQPLYVLLYASAIIFFCFFYTALVFNPRETADNLKKSGAFVPGIRPGEQTAKYIDKVMTRLTLVGALYITFICLIPEFMRDAMKVPFYFGGTSLLIVVVVIMDFMAQVQTLMMSSQYESALKKANLKGYGR
B2: secY L285W (protein)
chain: MAKQPGLDFQSAKGGLGELKRRLLFVIGALIVFRIGSFIPIPGIDAAVLAKLLEQQRGTIIEMFNMFSGGALSRASIFALGIMPYISASIIIQLLTVVHPTLAEIKKEGESGRRKISQYTRYGTLVLAIFQSIGIATGLPNMPGMQGLVINPGFAFYFTAVVSLVTGTMFLMWLGEQITERGIGNGISIIIFAGIVAGLPPAIAHTIEQARQGDLHFLVLLLVAVLVFAVTFFVVFVERGQRRIVVNYAKRQQGRRVYAAQSTHLPLKVNMAGVIPAIFASSIIWFPATIASWFGGGTGWNWLTTISLYLQPGQPLYVLLYASAIIFFCFFYTALVFNPRETADNLKKSGAFVPGIRPGEQTAKYIDKVMTRLTLVGALYITFICLIPEFMRDAMKVPFYFGGTSLLIVVVVIMDFMAQVQTLMMSSQYESALKKANLKGYGR
B3: secY L285P (protein)
chain: MAKQPGLDFQSAKGGLGELKRRLLFVIGALIVFRIGSFIPIPGIDAAVLAKLLEQQRGTIIEMFNMFSGGALSRASIFALGIMPYISASIIIQLLTVVHPTLAEIKKEGESGRRKISQYTRYGTLVLAIFQSIGIATGLPNMPGMQGLVINPGFAFYFTAVVSLVTGTMFLMWLGEQITERGIGNGISIIIFAGIVAGLPPAIAHTIEQARQGDLHFLVLLLVAVLVFAVTFFVVFVERGQRRIVVNYAKRQQGRRVYAAQSTHLPLKVNMAGVIPAIFASSIIPFPATIASWFGGGTGWNWLTTISLYLQPGQPLYVLLYASAIIFFCFFYTALVFNPRETADNLKKSGAFVPGIRPGEQTAKYIDKVMTRLTLVGALYITFICLIPEFMRDAMKVPFYFGGTSLLIVVVVIMDFMAQVQTLMMSSQYESALKKANLKGYGR
B4: secY F286Q (protein)
chain: MAKQPGLDFQSAKGGLGELKRRLLFVIGALIVFRIGSFIPIPGIDAAVLAKLLEQQRGTIIEMFNMFSGGALSRASIFALGIMPYISASIIIQLLTVVHPTLAEIKKEGESGRRKISQYTRYGTLVLAIFQSIGIATGLPNMPGMQGLVINPGFAFYFTAVVSLVTGTMFLMWLGEQITERGIGNGISIIIFAGIVAGLPPAIAHTIEQARQGDLHFLVLLLVAVLVFAVTFFVVFVERGQRRIVVNYAKRQQGRRVYAAQSTHLPLKVNMAGVIPAIFASSIILQPATIASWFGGGTGWNWLTTISLYLQPGQPLYVLLYASAIIFFCFFYTALVFNPRETADNLKKSGAFVPGIRPGEQTAKYIDKVMTRLTLVGALYITFICLIPEFMRDAMKVPFYFGGTSLLIVVVVIMDFMAQVQTLMMSSQYESALKKANLKGYGR
B5: secY L285Q (protein)
chain: MAKQPGLDFQSAKGGLGELKRRLLFVIGALIVFRIGSFIPIPGIDAAVLAKLLEQQRGTIIEMFNMFSGGALSRASIFALGIMPYISASIIIQLLTVVHPTLAEIKKEGESGRRKISQYTRYGTLVLAIFQSIGIATGLPNMPGMQGLVINPGFAFYFTAVVSLVTGTMFLMWLGEQITERGIGNGISIIIFAGIVAGLPPAIAHTIEQARQGDLHFLVLLLVAVLVFAVTFFVVFVERGQRRIVVNYAKRQQGRRVYAAQSTHLPLKVNMAGVIPAIFASSIIQFPATIASWFGGGTGWNWLTTISLYLQPGQPLYVLLYASAIIFFCFFYTALVFNPRETADNLKKSGAFVPGIRPGEQTAKYIDKVMTRLTLVGALYITFICLIPEFMRDAMKVPFYFGGTSLLIVVVVIMDFMAQVQTLMMSSQYESALKKANLKGYGR
B6: secY F286D (protein)
chain: MAKQPGLDFQSAKGGLGELKRRLLFVIGALIVFRIGSFIPIPGIDAAVLAKLLEQQRGTIIEMFNMFSGGALSRASIFALGIMPYISASIIIQLLTVVHPTLAEIKKEGESGRRKISQYTRYGTLVLAIFQSIGIATGLPNMPGMQGLVINPGFAFYFTAVVSLVTGTMFLMWLGEQITERGIGNGISIIIFAGIVAGLPPAIAHTIEQARQGDLHFLVLLLVAVLVFAVTFFVVFVERGQRRIVVNYAKRQQGRRVYAAQSTHLPLKVNMAGVIPAIFASSIILDPATIASWFGGGTGWNWLTTISLYLQPGQPLYVLLYASAIIFFCFFYTALVFNPRETADNLKKSGAFVPGIRPGEQTAKYIDKVMTRLTLVGALYITFICLIPEFMRDAMKVPFYFGGTSLLIVVVVIMDFMAQVQTLMMSSQYESALKKANLKGYGR
B7: secY L285A (protein)
chain: MAKQPGLDFQSAKGGLGELKRRLLFVIGALIVFRIGSFIPIPGIDAAVLAKLLEQQRGTIIEMFNMFSGGALSRASIFALGIMPYISASIIIQLLTVVHPTLAEIKKEGESGRRKISQYTRYGTLVLAIFQSIGIATGLPNMPGMQGLVINPGFAFYFTAVVSLVTGTMFLMWLGEQITERGIGNGISIIIFAGIVAGLPPAIAHTIEQARQGDLHFLVLLLVAVLVFAVTFFVVFVERGQRRIVVNYAKRQQGRRVYAAQSTHLPLKVNMAGVIPAIFASSIIAFPATIASWFGGGTGWNWLTTISLYLQPGQPLYVLLYASAIIFFCFFYTALVFNPRETADNLKKSGAFVPGIRPGEQTAKYIDKVMTRLTLVGALYITFICLIPEFMRDAMKVPFYFGGTSLLIVVVVIMDFMAQVQTLMMSSQYESALKKANLKGYGR
B8: secY L285D (protein)
chain: MAKQPGLDFQSAKGGLGELKRRLLFVIGALIVFRIGSFIPIPGIDAAVLAKLLEQQRGTIIEMFNMFSGGALSRASIFALGIMPYISASIIIQLLTVVHPTLAEIKKEGESGRRKISQYTRYGTLVLAIFQSIGIATGLPNMPGMQGLVINPGFAFYFTAVVSLVTGTMFLMWLGEQITERGIGNGISIIIFAGIVAGLPPAIAHTIEQARQGDLHFLVLLLVAVLVFAVTFFVVFVERGQRRIVVNYAKRQQGRRVYAAQSTHLPLKVNMAGVIPAIFASSIIDFPATIASWFGGGTGWNWLTTISLYLQPGQPLYVLLYASAIIFFCFFYTALVFNPRETADNLKKSGAFVPGIRPGEQTAKYIDKVMTRLTLVGALYITFICLIPEFMRDAMKVPFYFGGTSLLIVVVVIMDFMAQVQTLMMSSQYESALKKANLKGYGR
B9: secY F286W (protein)
chain: MAKQPGLDFQSAKGGLGELKRRLLFVIGALIVFRIGSFIPIPGIDAAVLAKLLEQQRGTIIEMFNMFSGGALSRASIFALGIMPYISASIIIQLLTVVHPTLAEIKKEGESGRRKISQYTRYGTLVLAIFQSIGIATGLPNMPGMQGLVINPGFAFYFTAVVSLVTGTMFLMWLGEQITERGIGNGISIIIFAGIVAGLPPAIAHTIEQARQGDLHFLVLLLVAVLVFAVTFFVVFVERGQRRIVVNYAKRQQGRRVYAAQSTHLPLKVNMAGVIPAIFASSIILWPATIASWFGGGTGWNWLTTISLYLQPGQPLYVLLYASAIIFFCFFYTALVFNPRETADNLKKSGAFVPGIRPGEQTAKYIDKVMTRLTLVGALYITFICLIPEFMRDAMKVPFYFGGTSLLIVVVVIMDFMAQVQTLMMSSQYESALKKANLKGYGR
B10: secY F286A (protein)
chain: MAKQPGLDFQSAKGGLGELKRRLLFVIGALIVFRIGSFIPIPGIDAAVLAKLLEQQRGTIIEMFNMFSGGALSRASIFALGIMPYISASIIIQLLTVVHPTLAEIKKEGESGRRKISQYTRYGTLVLAIFQSIGIATGLPNMPGMQGLVINPGFAFYFTAVVSLVTGTMFLMWLGEQITERGIGNGISIIIFAGIVAGLPPAIAHTIEQARQGDLHFLVLLLVAVLVFAVTFFVVFVERGQRRIVVNYAKRQQGRRVYAAQSTHLPLKVNMAGVIPAIFASSIILAPATIASWFGGGTGWNWLTTISLYLQPGQPLYVLLYASAIIFFCFFYTALVFNPRETADNLKKSGAFVPGIRPGEQTAKYIDKVMTRLTLVGALYITFICLIPEFMRDAMKVPFYFGGTSLLIVVVVIMDFMAQVQTLMMSSQYESALKKANLKGYGR
B11: accD V110P (protein)
chain: MSWIERIKSNITPTRKASIPEGVWTKCDSCGQVLYRAELERNLEVCPKCDHHMRMTARNRLHSLLDEGSLVELGSELEPKDVLKFRDSKKYKDRLASAQKETGEKDALVPMKGTLYGMPVVAAAFEFAFMGGSMGSVVGARFVRAVEQALEDNCPLICFSASGGARMQEALMSLMQMAKTSAALAKMQERGLPYISVLTDPTMGGVSASFAMLGDLNIAEPKALIGFAGPRVIEQTVREKLPPGFQRSEFLIEKGAIDMIVRRPEMRLKLASILAKLMNLPAPNPEAPREGVVVPPVPDQEPEA

Target: Escherichia coli (laboratory strain)
Assay: barcode share on antibiotic plates over drug-free plates; higher = less susceptible
Settings: antibiotic: carbenicillin; 2× MIC (3.1 µg/mL)
Procedure: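 A pool of E. coli strains, each edited to carry one amino-acid change in an essential protein, was grown for 48 h on minimal glucose agar with or without antibiotic; strain barcodes were sequenced; mean of two replicates.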

| Protein | fold change of barcode share |
| --- | --- |
| B1 | 0.232 ± 0.049 |
| B2 | 0.261 ± 0.09 |
| B3 | 0.335 ± 0.21 |
| B4 | 0.448 ± 0.14 |
| B5 | 0.287 ± 0.015 |
| B6 | 0.23 ± 0.016 |
| B7 | 0.305 ± 0.11 |
| B8 | 0.101 ± 0.056 |
| B9 | 0.181 ± 0.012 |
| B10 | 0.471 ± 0.2 |
| B11 | 0.404 ± 0.15 |

Same assay, conditions: antibiotic: gentamicin; 2× MIC (MIC 0.45 µg/mL)

| Protein | fold change of barcode share |
| --- | --- |
| B2 | 0.00806 ± 0.0003 |
| B3 | 0.347 ± 0.45 |
| B4 | 0.00757 ± 0.0052 |
| B5 | 0.0604 ± 0.08 |
| B6 | < 0.00534 |
| B7 | 0.00644 ± 0.0045 |
| B8 | < 0.01 |
| B9 | < 0.00447 |
| B10 | < 0.00494 |
| B11 | < 0.00738 |
